A number of entries come with more than one value. This list holds those alone. An entry can have further records. The records of an entry repeat one measurement (runs, samples, wells, individuals or studies).
Tests used:
Format in all cases: toxicity, cell-based
U2OS = test: Multiplex assay against U2OS; settings: human
In short: (§1)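 On a CQ1 microscope at 37°C and 5% CO2, live cells were imaged after compound addition. They had been stained at seeding with Hoechst33342, BioTracker Green Microtubule Cytoskeleton Dye, MitoTracker Red and Annexin V Alexa Fluor 680. CellPathfinder machine-learning gating assigned cells to Hoechst high-intensity objects or normal cells, normal cells to healthy, pyknosed or fragmented nuclei, and pyknosed cells to mitotic or apoptotic. Tubulin, mitochondrial-mass and membrane-permeability phenotypes are per cents of healthy-nucleus cells.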

Fibroblast = test: Multiplex assay against human fibroblast; in short: as §1
HEK-293T = test: Multiplex assay against HEK293T; settings: human; in short: as §1
[1] = 24 h, 1 µM, compound concentration 1 uM
[2] = 24 h, 10 µM, compound concentration 10 uM
[3] = 48 h, 10 µM, compound concentration 10 uM
[4] = 12 h, 10 µM, compound concentration 10 uM
[5] = 48 h, 1 µM, compound concentration 1 uM
[6] = 12 h, 1 µM, compound concentration 1 uM

Cc1nn(C)c2nc(NNC(=O)Nc3cc(Cl)nc(Cl)c3)cc(C(C)C)c12
Population Mitotic Cells (%) (U2OS; [1]): 19% and 6%
Population Mitochondria Different-Phenotype (%) (Fibroblast; [2]): 22% and 6%
Population Mitochondria Different-Phenotype (%) (Fibroblast; [3]): 31% and 5%
Population Mitotic Cells (%) (Fibroblast; [3]): 6% and 37%

CC(/C=C1\SC(=S)N(CCCC(=O)Nc2ccc(C(=O)O)c(O)c2)C1=O)=C\c1ccccc1
Population Mitotic Cells (%) (U2OS; [4]): 8% and 27%
Population Mitotic Cells (%) (U2OS; [1]): 16% and 5%
Population Mitotic Cells (%) (U2OS; [2]): 11% and 46%
Population Mitotic Cells (%) (U2OS; [5]): 6% and 21%
Population Mitotic Cells (%) (U2OS; [3]): 2% and 17%
Population Pyknosed Nuclei (%) (Fibroblast; [2]): 7% and 26%

Cl.O=S(=O)(c1cccc2c(I)cccc12)N1CCCNCC1
Population Mitochondria Different-Phenotype (%) (U2OS; [4]): 0.95% and 16.98%
Total Cell Count (U2OS; [4]): 483 and 143
Population Mitochondria Different-Phenotype (%) (U2OS; [2]): 0.37% and 13.74%
Total Cell Count (U2OS; [2]): 611 and 178
Total Cell Count (U2OS; [5]): 885 and 292
Total Cell Count (U2OS; [3]): 1051 and 269
Population Apoptotic (%) (Fibroblast; [4]): 5.77% and 32.53%
Population Mitochondria Different-Phenotype (%) (Fibroblast; [5]): 12.2% and 1.76%
Population Tubulin-Different-Phenotype (%) (Fibroblast; [5]): 6.83% and 26.47%
Population Fragmented Nuclei (%) (Fibroblast; [3]): 17.15% and 4.68%

COc1cccc2c1c(NS(=O)(=O)c1ccc(Cl)s1)nn2Cc1cccc(CNC(=O)C(C)(C)O)c1
Population Mitotic Cells (%) (U2OS; [5]): 4% and 25%

Cc1ccc(-c2ccc(F)cc2COc2ccc(CCC(=O)O)cc2)cc1
Population Apoptotic (%) (HEK-293T; [1]): 16% and 52%
Population Tubulin-Different-Phenotype (%) (Fibroblast; [3]): 20% and 62%

O=C(Nc1cc(-c2ccccc2)nn1-c1ccccc1F)c1ccc([N+](=O)[O-])cc1
Population Mitotic Cells (%) (U2OS; [4]): 33% and 5%
Population Fragmented Nuclei (%) (Fibroblast; [2]): 7% and 28%

Cc1cc(NC(=O)c2cccc(NC(=O)/C=C/CN(C)C)c2)ccc1Nc1nccc(-c2cccnc2)n1
Population Pyknosed Nuclei (%) (U2OS; [6]): 7.11% and 22.09%
Population Mitochondria Different-Phenotype (%) (U2OS; [4]): 12.39% and 64.47%
Population Mitochondria Different-Phenotype (%) (U2OS; [1]): 0.2% and 12.5%
Population Healthy Nuclei (%) (U2OS; [2]): 35.74% and 10.53%
Total Cell Count (U2OS; [5]): 976 and 307
Population Membrane Permeable-Phenotype (%) (U2OS; [3]): 9.09% and 42.11%
Population Mitochondria Different-Phenotype (%) (U2OS; [3]): 22.73% and 5.26%
Population Tubulin-Different-Phenotype (%) (U2OS; [3]): 50% and 15.79%

Cc1cc(C)cc(C(=O)NOCCCCCC(=O)NO)c1
Population Tubulin-Different-Phenotype (%) (HEK-293T; [4]): 8.14% and 28.57%
Population Mitochondria Different-Phenotype (%) (HEK-293T; [2]): 28.21% and 8.33%
Population Tubulin-Different-Phenotype (%) (HEK-293T; [5]): 13.23% and 54.02%
Population Mitochondria Different-Phenotype (%) (HEK-293T; [3]): 44.94% and 10.94%
Population Fragmented Nuclei (%) (Fibroblast; [2]): 14.22% and 3.76%
Population Mitochondria Different-Phenotype (%) (Fibroblast; [5]): 21.14% and 6.84%
Population Fragmented Nuclei (%) (Fibroblast; [3]): 21.18% and 5.29%
Population Mitochondria Different-Phenotype (%) (Fibroblast; [3]): 16.24% and 5.19%
Population Mitotic Cells (%) (Fibroblast; [3]): 55.81% and 4.65%

OCCCNc1cc(-c2ccnc(Nc3cccc(Cl)c3)n2)ccn1
Population Mitochondria Different-Phenotype (%) (U2OS; [6]): 4% and 18%
Population Mitochondria Different-Phenotype (%) (Fibroblast; [2]): 46% and 9%

CCOc1c2c(c(OCC)c3ncccc13)CN(c1ccc(CS(=O)(=O)NC(=O)Cc3ccccc3OC)cc1C)C2=O
Population Mitotic Cells (%) (U2OS; [6]): 35% and 0%
Population Membrane Permeable-Phenotype (%) (Fibroblast; [1]): 2% and 18%

CN1CCN(c2nc3cc(C(F)(F)F)ccc3n3cccc23)CC1.O=C(O)/C=C\C(=O)O.O=C(O)/C=C\C(=O)O
Population Pyknosed Nuclei (%) (Fibroblast; [6]): 9% and 30%

CN1CCN(c2cc(-c3ccccc3)nc(N)n2)CC1
Population Fragmented Nuclei (%) (U2OS; [4]): 30% and 8%

NCCc1cn(S(=O)(=O)c2c(Cl)nc3sccn23)c2ccccc12.O=C(O)C(=O)O
Population Mitochondria Different-Phenotype (%) (Fibroblast; [5]): 3% and 17%

CCCCCC(O)/C=C/[C@H]1C(=O)CC(O)C1C/C=C\CCCC(=O)O (some centres not stated)
Population Mitotic Cells (%) (U2OS; [6]): 40% and 11%
Population Mitochondria Different-Phenotype (%) (Fibroblast; [6]): 4% and 20%
Population Tubulin-Different-Phenotype (%) (Fibroblast; [3]): 14% and 47%

CN(C)C(=O)Cn1cc(-c2ccc(-c3nnc4ccccn34)cc2)cn1
Population Fragmented Nuclei (%) (Fibroblast; [4]): 8% and 31%
Population Fragmented Nuclei (%) (Fibroblast; [2]): 10% and 36%

CN(C)C/C=C/C(=O)Nc1ccc(C(=O)N2CCCC(Nc3ncc(Cl)c(-c4c[nH]c5ccccc45)n3)C2)cc1 (configuration not stated)
Population Membrane Permeable-Phenotype (%) (Fibroblast; [4]): 1% and 12%

COc1cc2nc(N3CCN(C(=O)COc4c(OC)cccc4C(C)C)CC3)nc(N)c2cc1OC.Cl.Cl
Population Mitochondria Different-Phenotype (%) (Fibroblast; [2]): 17% and 5%

COc1c(Nc2ccc(S(C)(=O)=O)nc2C)ncnc1OC1CCN(C(=O)OC(C)C)CC1 [ADP-597]
Population Hoechst High Intensity Objects (%) (HEK-293T; [4]): 8% and 25%

COc1cc(Nc2ncc3c(n2)-c2ccc(Cl)cc2C(c2c(F)cccc2OC)=NC3)ccc1C(=O)O [ALISERTIB]
Population Mitotic Cells (%) (HEK-293T; [4]): 38% and 11%
Population Hoechst High Intensity Objects (%) (HEK-293T; [2]): 6% and 34%
Population Hoechst High Intensity Objects (%) (HEK-293T; [5]): 3% and 15%
Population Hoechst High Intensity Objects (%) (HEK-293T; [3]): 5% and 32%
Population Mitotic Cells (%) (HEK-293T; [3]): 52% and 17%

CC(=O)Nc1cccc2c1c(Sc1ccc(Cl)cc1)c(C)n2CC(=O)O [AZD1981]
Total Cell Count (U2OS; [6]): 253 and 82
Population Mitotic Cells (%) (U2OS; [1]): 8% and 50%
Population Membrane Permeable-Phenotype (%) (Fibroblast; [6]): 2% and 14%
Population Membrane Permeable-Phenotype (%) (Fibroblast; [2]): 2% and 14%

COCCNc1cc(NC(=O)N2CCCc3cc(CN4CCN(C)CC4=O)c(C=O)nc32)ncc1C#N [FGF401]
Population Healthy Nuclei (%) (HEK-293T; [6]): 51.34% and 12.59%
Population Mitochondria Different-Phenotype (%) (HEK-293T; [6]): 37.21% and 0%
Population Apoptotic (%) (HEK-293T; [4]): 5.3% and 19.78%
Population Healthy Nuclei (%) (HEK-293T; [4]): 55.97% and 13.16%
Population Tubulin-Different-Phenotype (%) (HEK-293T; [4]): 7.3% and 46.67%
Total Cell Count (HEK-293T; [1]): 539 and 144
Population Healthy Nuclei (%) (HEK-293T; [2]): 76.15% and 21.21%
Population Pyknosed Nuclei (%) (HEK-293T; [2]): 22.24% and 73.48%
Total Cell Count (HEK-293T; [2]): 499 and 132
Population Pyknosed Nuclei (%) (HEK-293T; [5]): 12.3% and 45%
Population Tubulin-Different-Phenotype (%) (HEK-293T; [5]): 3.02% and 60.82%
Total Cell Count (HEK-293T; [5]): 1236 and 180
Population Apoptotic (%) (HEK-293T; [3]): 5.63% and 19.3%
Population Pyknosed Nuclei (%) (HEK-293T; [3]): 12.37% and 40.71%
Population Tubulin-Different-Phenotype (%) (HEK-293T; [3]): 2.06% and 50.6%
Total Cell Count (HEK-293T; [3]): 1148 and 141
Population Pyknosed Nuclei (%) (Fibroblast; [1]): 20.64% and 5.33%
Population Apoptotic (%) (Fibroblast; [5]): 36.36% and 6.67%
Population Mitochondria Different-Phenotype (%) (Fibroblast; [3]): 14.39% and 3.61%

O=C(NCCN1CCC(n2c(=O)[nH]c3cc(Cl)ccc32)CC1)c1ccc(F)cc1 [HALOPEMIDE]
Population Mitotic Cells (%) (U2OS; [6]): 4% and 50%
Population Mitotic Cells (%) (U2OS; [5]): 32% and 4%

CC(=O)O[C@H]1C(=O)[C@@]2(C)[C@H]([C@H](OC(=O)c3ccccc3)[C@]3(O)C[C@H](OC(=O)[C@H](O)[C@@H](NC(=O)c4ccccc4)c4ccccc4)C(C)=C1C3(C)C)[C@]1(OC(C)=O)CO[C@@H]1C[C@@H]2O [PACLITAXEL]
Population Tubulin-Different-Phenotype (%) (Fibroblast; [2]): 12% and 40%

Cc1cccc(F)c1C(=O)Nc1cnc(-c2cc3c(cc2Cl)OC(F)(F)O3)cn1 [ZEGOCRACTIN]
Population Fragmented Nuclei (%) (HEK-293T; [6]): 12.4% and 1.99%
Population Tubulin-Different-Phenotype (%) (HEK-293T; [6]): 1.28% and 20.83%
Total Cell Count (HEK-293T; [1]): 497 and 164
Population Healthy Nuclei (%) (HEK-293T; [2]): 38.26% and 11.25%
Population Tubulin-Different-Phenotype (%) (HEK-293T; [2]): 57.43% and 11.11%
Population Tubulin-Different-Phenotype (%) (HEK-293T; [5]): 1.51% and 34.71%
Total Cell Count (HEK-293T; [5]): 987 and 213
Population Tubulin-Different-Phenotype (%) (HEK-293T; [3]): 9.2% and 44.64%
Total Cell Count (U2OS; [6]): 375 and 121
Population Mitochondria Different-Phenotype (%) (U2OS; [4]): 0.6% and 22.38%
Total Cell Count (U2OS; [1]): 520 and 163
Population Mitochondria Different-Phenotype (%) (U2OS; [2]): 0.75% and 18.75%
Total Cell Count (U2OS; [5]): 1011 and 264
Population Mitochondria Different-Phenotype (%) (U2OS; [3]): 0.9% and 14.53%

Source: ChEMBL document CHEMBL5724801, “EUbOPEN Chemogenomics Library - Multiplex” (2024)
